In the antibiotic and cytotoxicity screens of Wong et al. (2023):
This is one part of the list.

What follows are compounds tested on S. aureus RN4220 (assay: growth inhibition call (relative growth <= 0.2)). Details: 50 µM.

Growth inhibition call, inactive:
CC(C)c1ccc(/C=C2\CSc3ccccc3C2=O)cc1
CC1(C)[C@@H](OC(=O)CCC(=O)O)CC[C@@]2(C)[C@H]1CC[C@]1(C)[C@H]2C(=O)C=C2[C@@H]3C[C@@](C)(C(=O)O)CC[C@]3(C)CC[C@]21C
Cc1noc(C)c1NC(=O)Nc1cccc2c1O[C@H](CN(C)Cc1ccc(-c3ccccc3)cc1)[C@@H](C)CN([C@H](C)CO)C2=O
COc1ccc2c3c(n(c2c1)C)[C@H](CO)N(Cc1ccccc1)C[C@]13CCN(CC1)C(=O)Nc1cccc(c1)F
CNC[C@H]1OCCCC[C@@H](C)Oc2ccc(NC(=O)Nc3ccc(C(F)(F)F)cc3)cc2C(=O)N([C@H](C)CO)C[C@@H]1C
COc1ccc(NC(=O)Nc2ccc3c(c2)C(=O)N([C@H](C)CO)C[C@@H](C)[C@H](CN(C)S(=O)(=O)c2cccs2)OCCCC[C@@H](C)O3)cc1
Cc1ccc(S(=O)(=O)N(C)C[C@H]2Oc3c(NC(=O)c4cc(C)nn4C)cccc3C(=O)N([C@H](C)CO)C[C@H]2C)cc1
C[C@@H]1CN([C@H](C)CO)C(=O)CCCn2cc(nn2)CO[C@H]1CN(C)Cc1ccc(C(=O)Nc2ccccc2N)cc1
C=C(C)C1COc2cc3oc(=O)ccc3cc2O1 (centres undefined)
CN(C)CCCNC(=O)C[C@@H]1CC[C@H]2[C@@H](COC[C@@H](O)CN2S(=O)(=O)c2ccc(Cl)cc2)O1
C[C@H]1CN([C@@H](C)CO)S(=O)(=O)c2ccc(-c3ccncc3)cc2O[C@H]1CN(C)Cc1ccc(Oc2ccccc2)cc1
O=C(O)C[C@@H](NCCN[C@H](CC(=O)O)C(=O)O)C(=O)O
COCCNC(=O)C[C@@H]1C[C@@H]2c3cc(NC(=O)CN(C)C)ccc3O[C@@H]2[C@@H](CO)O1
C[C@H](CO)N1C[C@H](C)[C@H](CN(C)S(C)(=O)=O)OCCCC[C@H](C)Oc2ccc(NS(=O)(=O)c3cccs3)cc2C1=O
O=C(C[C@@H]1C=C[C@H](NC(=O)Nc2cc(F)ccc2F)[C@@H](CO)O1)NCCCN1CCOCC1
C[C@H]1CN([C@@H](C)CO)C(=O)c2cccc(NC(=O)Nc3ccc4c(c3)OCO4)c2O[C@@H]1CN(C)C(=O)Nc1ccc(C(F)(F)F)cc1
Cc1noc(C)c1NC(=O)N(C)C[C@@H]1Oc2ccc(NS(=O)(=O)c3ccccc3)cc2C(=O)N([C@@H](C)CO)C[C@H]1C
Cc1noc(C)c1NC(=O)N(C)C[C@@H]1Oc2ccc(NC(=O)NC(C)C)cc2CC(=O)N([C@@H](C)CO)C[C@@H]1C
Cc1noc(C)c1NC(=O)N(C)C[C@@H]1Oc2ccc(NC(=O)CCN3CCOCC3)cc2CC(=O)N([C@@H](C)CO)C[C@H]1C
C[C@@H]1CCCCO[C@H](CN(C)CC2CCCCC2)[C@H](C)CN([C@@H](C)CO)C(=O)c2cc(NC(=O)C3CCCCC3)ccc2O1
C[C@H](CO)N1C[C@H](C)[C@H](CN(C)CC2CCCCC2)Oc2ccc(NC(=O)Nc3ccc(F)cc3)cc2C1=O
C[C@@H]1CCCCO[C@@H](CN(C)Cc2ccc(C(=O)O)cc2)[C@@H](C)CN([C@@H](C)CO)C(=O)c2cc(NS(=O)(=O)c3cccs3)ccc2O1
CC(C)NC(=O)Nc1ccc2c(c1)CC(=O)N([C@H](C)CO)C[C@@H](C)[C@H](CN(C)S(=O)(=O)c1ccc(Cl)cc1)O2
COc1ccc(S(=O)(=O)Nc2cccc3c2O[C@H](CN(C)S(=O)(=O)c2ccc(F)cc2)[C@H](C)CN([C@H](C)CO)C3=O)cc1
C[C@H](CO)N1C[C@H](C)[C@H](CN(C)Cc2ccc(Oc3ccccc3)cc2)Oc2ccc(NC(=O)Nc3cccc4ccccc34)cc2C1=O
COc1ccc(CN(C)C[C@H]2OCCCC[C@H](C)Oc3ccc(NC(=O)Nc4ccc5c(c4)OCO5)cc3C(=O)N([C@H](C)CO)C[C@@H]2C)cc1
Cc1noc(C)c1NC(=O)Nc1ccc2c(c1)C(=O)N([C@H](C)CO)C[C@H](C)[C@@H](CN(C)C(=O)C1CCCCC1)OCCCC[C@H](C)O2
COCC(=O)Nc1ccc2c(c1)OC[C@H](C)N(Cc1cccc(F)c1)C[C@@H](C)[C@@H](OC)CN(C)C2=O
COc1ccc(NC(=O)Nc2cccc3c2O[C@@H](CN(C)CC2CCCCC2)[C@H](C)CN([C@H](C)CO)C3=O)cc1
